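These data come from cells grown in 96-well plates and exposed to compound for 48 hours at five concentrations. GI50: concentration for 50% inhibition of growth.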 For part of its entries the source gives two or more results. The list is limited to them. The source may hold further records. For some of these results: The values listed for one entry are repeated measurements (runs, samples, wells, individuals or studies). Brackets tell where a record comes from. The letters are not those of the source and start again with each entry.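 TGI denotes the concentration required for complete inhibition of growth.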 For some of these results: A record mostly stands for its own series of concentrations, not given here; some values may only mark the edge of a range.
What was measured:
Experiment in all cases: NCI anticancer screen, dose series, 48 h
[1] = tested on: HCT-15 colon
[2] = tested on: ACHN renal
[3] = tested on: OVCAR-4 ovarian
[4] = tested on: UACC-257 melanoma
[5] = tested on: NCI-H226 lung
[6] = tested on: NCI-H522 lung
[7] = tested on: K-562 leukemia

Structure (SMILES)	TGI [1]	TGI [2]	TGI [3]	TGI [4]	TGI [5]	GI50 [6]	GI50 [7]
CCCCNCCCNCCCNC(=O)c1csc(-c2csc(CCNC(=O)C(NC(=O)C(C)C(O)C(C)NC(=O)C(NC(=O)c3nc(C(CC(N)=O)NCC(N)C(N)=O)nc(N)c3C)C(OC3OC(CO)C(O)C(O)C3OC3OC(CO)C(O)C(OC(N)=O)C3O)c3cnc[nH]3)C(C)O)n2)n1 (configuration not stated)	7.88 µM and > 100 µM	5.05 µM and 172 nM	2.18 µM and 25.6 µM	3.93 µM and > 95.3 µM	1.4 µM and 15.6 µM	–	–
CCn1cc(-c2ccnc3[nH]c(-c4cccc(CN(C)C)c4)cc23)c(-c2ccc(NC(=O)N(C)C)cc2)n1	–	–	–	–	–	1.98 µM [sample A, mean of 2 tests] and 171 nM [sample B, 1 test]	1.55 µM [sample A, mean of 2 tests] and 125 nM [sample B, 1 test]

From PubChem BioAssay (NCI)
